Reference: article PMC3617184
Results are given in words; binding and its absence hold for the method and conditions named. In cells and extracts the contact can be indirect. Some entries that bind do so weakly or less than the wild type. For part of these data: Tags and fused reporters may be left off the sequences shown.

Experiments:
[1] = target: T1, myc-tagged Whi5 (S. cerevisiae) (UniProt Q12416); experiment: co-IP; lysate of an asynchronous Whi5-myc culture; IP with anti-myc antibody; blots with anti-myc, anti-Swi6, anti-Swi4, anti-Mbp1
T1 sequence: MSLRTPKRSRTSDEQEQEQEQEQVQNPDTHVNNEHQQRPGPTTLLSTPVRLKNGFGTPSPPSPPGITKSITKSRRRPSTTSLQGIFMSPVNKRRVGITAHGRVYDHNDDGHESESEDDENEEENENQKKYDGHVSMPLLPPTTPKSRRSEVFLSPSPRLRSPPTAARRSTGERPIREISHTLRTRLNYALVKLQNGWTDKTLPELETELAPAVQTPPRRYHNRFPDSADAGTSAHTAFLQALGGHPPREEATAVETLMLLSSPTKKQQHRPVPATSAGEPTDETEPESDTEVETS

Mbp1 (S. cerevisiae) = target: T2, Mbp1 (S. cerevisiae) (UniProt P39678); experiment: co-IP; lysate of an asynchronous Nrm1-myc culture; IP with anti-Mbp1, anti-Swi4 or anti-Swi6 polyclonal sera, protein A Sepharose, 2 hours at 4°C; lysis buffer 50 mM Tris-HCl pH 7.5, 1% Triton X-100, 250 mM NaCl; blots with anti-myc, anti-Mbp1, anti-Swi6, anti-Swi4
T2 sequence: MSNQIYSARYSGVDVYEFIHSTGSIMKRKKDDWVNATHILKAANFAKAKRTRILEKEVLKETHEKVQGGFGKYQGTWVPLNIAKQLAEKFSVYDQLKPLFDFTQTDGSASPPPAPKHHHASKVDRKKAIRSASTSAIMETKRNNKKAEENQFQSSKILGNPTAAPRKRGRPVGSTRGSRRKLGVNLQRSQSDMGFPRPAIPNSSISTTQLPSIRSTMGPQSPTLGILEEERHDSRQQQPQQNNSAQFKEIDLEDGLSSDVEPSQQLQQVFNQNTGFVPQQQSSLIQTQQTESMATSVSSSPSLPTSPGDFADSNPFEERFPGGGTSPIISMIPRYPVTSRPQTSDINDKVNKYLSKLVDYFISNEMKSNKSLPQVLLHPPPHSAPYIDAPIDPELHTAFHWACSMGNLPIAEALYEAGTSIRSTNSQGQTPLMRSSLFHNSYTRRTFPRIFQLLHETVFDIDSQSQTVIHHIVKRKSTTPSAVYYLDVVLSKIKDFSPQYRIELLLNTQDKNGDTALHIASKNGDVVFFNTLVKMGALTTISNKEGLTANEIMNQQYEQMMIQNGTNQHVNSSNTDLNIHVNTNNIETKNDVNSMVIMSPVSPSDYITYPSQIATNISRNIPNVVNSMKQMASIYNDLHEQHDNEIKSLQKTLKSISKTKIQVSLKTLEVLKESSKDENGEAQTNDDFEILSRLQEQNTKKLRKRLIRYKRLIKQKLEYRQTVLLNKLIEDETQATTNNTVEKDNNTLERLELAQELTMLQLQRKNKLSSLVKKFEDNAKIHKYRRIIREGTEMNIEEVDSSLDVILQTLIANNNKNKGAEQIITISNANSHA

Swi4 (S. cerevisiae) = target: T3, Swi4 (S. cerevisiae) (UniProt P25302); experiment: as above
T3 sequence: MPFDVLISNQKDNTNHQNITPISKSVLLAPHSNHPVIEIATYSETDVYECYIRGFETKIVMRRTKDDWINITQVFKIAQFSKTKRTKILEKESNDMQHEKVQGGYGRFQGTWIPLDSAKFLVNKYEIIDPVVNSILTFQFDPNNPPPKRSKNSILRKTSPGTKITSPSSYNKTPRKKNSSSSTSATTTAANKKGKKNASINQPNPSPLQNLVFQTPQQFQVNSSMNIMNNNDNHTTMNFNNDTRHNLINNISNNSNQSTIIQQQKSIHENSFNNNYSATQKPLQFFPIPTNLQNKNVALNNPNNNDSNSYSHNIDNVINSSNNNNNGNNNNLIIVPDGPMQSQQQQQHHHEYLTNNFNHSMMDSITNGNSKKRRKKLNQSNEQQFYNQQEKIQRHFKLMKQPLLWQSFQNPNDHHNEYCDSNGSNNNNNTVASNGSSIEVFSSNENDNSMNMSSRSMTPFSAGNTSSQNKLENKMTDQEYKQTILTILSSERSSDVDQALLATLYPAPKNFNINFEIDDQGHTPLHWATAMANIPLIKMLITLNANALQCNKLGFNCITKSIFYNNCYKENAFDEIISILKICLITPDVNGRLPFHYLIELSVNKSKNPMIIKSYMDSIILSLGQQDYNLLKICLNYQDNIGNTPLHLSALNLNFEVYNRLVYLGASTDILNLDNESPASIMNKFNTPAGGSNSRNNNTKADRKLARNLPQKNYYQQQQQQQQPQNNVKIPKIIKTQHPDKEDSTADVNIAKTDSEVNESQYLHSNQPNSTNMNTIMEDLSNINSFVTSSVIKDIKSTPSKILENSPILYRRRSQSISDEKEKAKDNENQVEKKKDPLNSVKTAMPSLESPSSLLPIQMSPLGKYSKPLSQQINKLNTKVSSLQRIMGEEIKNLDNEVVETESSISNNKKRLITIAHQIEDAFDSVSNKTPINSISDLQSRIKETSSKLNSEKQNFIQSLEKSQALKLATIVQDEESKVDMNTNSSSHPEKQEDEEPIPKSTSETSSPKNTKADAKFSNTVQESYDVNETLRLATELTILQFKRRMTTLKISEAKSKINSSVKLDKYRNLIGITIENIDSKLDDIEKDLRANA

Measured: binding

B1: Swi6 (protein, UniProt P09959 1-803)
chain: MALEEVVRYLGPHNEIPLTLTRDSETGHFLLKHFLPILQQYHDTGNINETNPDSFPTDEERNKLLAHYGIAVNTDDRGELWIELEKCLQLLNMLNLFGLFQDAFEFEEPETDQDEEDPSHSKLPENKTKSENSKDNISSKRINNLQDMSLDSDAHRELGSPLKKLKIDTSVIDAESDSTPNTARGKPNDDINKGPSGDNENNGTDDNDRTAGPIITFTHDLTSDFLSSPLKIMKALPSPVVNDNEQKMKLEAFLQRLLFPEIQEMPTSLNNDSSNRNSEGGSSNQQQQHVSFDSLLQEVNDAFPNTQLNLNIPVDEHGNTPLHWLTSIANLELVKHLVKHGSNRLYGDNMGESCLVKAVKSVNNYDSGTFEALLDYLYPCLILEDSMNRTILHHIIITSGMTGCSAAAKYYLDILMGWIVKKQNRPIQSGTNEKESKPNDKNGERKDSILENLDLKWIIANMLNAQDSNGDTCLNIAARLGNISIVDALLDYGADPFIANKSGLRPVDFGAGTSKLQNTNGGDENSKMVSKGDYDGQKNGKAKKIRSQLLKNPPETTSLINDVQNLLNSISKDYENETVQYNEKLEKLHKELNEQREELANSREQLANVKQLKDEYSLMQEQLTNLKAGIEEEEESFREESKKLGIIADESSGIDWDSSEYDADEPFKVEFLSDFLEDKLQKNYEGDISKLLEAESKEQIMEQIRNQLPAEKIQSMLPPTVLLKARINAYKRNDKHLTNVLDTISTKQSELENKFRRVLSLCLKIDENKVDNMLDGLLQAISSEDPQDIDTDEMQDFLKKHAS
binds: [1] | Mbp1 (S. cerevisiae) | Swi4 (S. cerevisiae)
